Experimental data taken from PubChem BioAssay AID1461 (National Center for Advancing Translational Sciences (NCATS), 2008).
In all, about 220,000 compounds went through this assay and about 2,300 (1%) were called active. The inconclusive results got no clear call from the source; some entries with a clear call stand among them for comparison. Calls come from the whole dose curve; as a rule, active = well fitted inhibition curve with a large enough effect; inconclusive = small, poorly fitted or top-dose-only effect, or effect the other way; inactive = no such curve, though single readings can be large or run the other way. No potency is given beside an inconclusive call; the fits are too rough.

molecular target: Neuropeptide S receptor (Homo sapiens) (UniProt Q6W5P4); experiment: qHTS Assay for Antagonists of the Neuropeptide S Receptor: cAMP Signal Transduction; conditions: CHO-NPSR cells, cAMP TR-FRET, antagonist mode; series mostly up to 38.3 µM; note: nearly all actives have a fitted effect of over 50% in size
Sequence of UniProt Q6W5P4 (Q6W5P4 whole entry, looked up): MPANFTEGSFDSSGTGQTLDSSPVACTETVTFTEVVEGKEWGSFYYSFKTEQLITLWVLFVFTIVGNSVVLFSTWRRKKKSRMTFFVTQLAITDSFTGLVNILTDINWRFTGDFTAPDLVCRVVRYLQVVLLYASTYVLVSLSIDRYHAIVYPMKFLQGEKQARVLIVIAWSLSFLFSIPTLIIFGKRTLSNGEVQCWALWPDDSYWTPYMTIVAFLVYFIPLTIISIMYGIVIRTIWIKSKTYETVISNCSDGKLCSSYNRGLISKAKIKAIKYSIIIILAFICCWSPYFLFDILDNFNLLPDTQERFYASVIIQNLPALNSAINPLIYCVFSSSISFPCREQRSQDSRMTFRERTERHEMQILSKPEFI
Potency is the fitted concentration of half-maximal effect; tags give direction and shape of the fitted curve.

Structure (SMILES)	Potency
COc1ccc2c(c1)S/C(=C\C(=O)c1ccncc1)N2C	inactive
O=CNCCCc1nc2ccccc2n1Cc1ccccc1	inactive
COc1ccccc1N(C)S(=O)(=O)c1ccc(C(=O)NC2CCCCCC2)cc1	inactive
Cn1c(=O)c2c(nc(N3CCN(c4ccccn4)CC3)n2Cc2ccccc2Cl)n(C)c1=O	inconclusive [inhibitor, partial curve]
O=C(O)c1ccc(N/N=C/c2ccc(-c3ccc(Cl)cc3Cl)o2)cc1	inconclusive [inhibitor, single point]
CCC(=O)Nc1nc(C)c(-c2csc(Nc3ccccn3)n2)s1	inactive
Cc1nnc(-c2cccc(Br)c2)c2cn(-c3ccc(Br)cc3)nc12	inconclusive [inhibitor, partial curve, poor fit]
COc1ccc2cc(C(=O)N3CCOCC3)sc(=O)c2c1OC	inconclusive [inhibitor, single point]
NC1=NC(=O)/C(=C/c2cn(CCC(=O)O)nc2-c2ccc(Cl)cc2)S1	inactive
CCOC(=O)C1=C(c2ccccc2)O/C(=C(/C#N)C(F)(F)F)S1	active: 7.94 µM
Cc1ccc(C)c(N2CCN(C(=O)C3CCN(S(=O)(=O)c4cccc5nsnc45)CC3)CC2)c1	inactive
Cc1cc(C)nc(N/N=C/C2=C(N3CCOCC3)C(=C/c3ccccc3)/CC2)n1	inconclusive [inhibitor, single point]
C=C1SC(Nc2c(C)cccc2C)=NC12CCCCC2	inconclusive [activator, single point]
CSc1ccccc1-c1n[nH]c(=S)o1	active: 3.98 µM
COc1ccc(/C=C2/N=C(SC3CCOC3=O)N(c3cccc(OC)c3)C2=O)cc1 (stereo not given)	inconclusive [inhibitor, partial curve]
Cc1ccc(C(=O)CSc2nnc(CNc3nc(-c4ccccc4)cs3)n2C)cc1	inactive
O=C(N/N=C/c1ccc2nccnc2c1)c1ccc(Br)cc1	inconclusive [inhibitor, single point]
COc1ccc(OCCNC(=O)C(c2ccccc2)c2ccccc2)cc1	inconclusive [inhibitor, single point]
Cc1ccc(NC(=O)C(c2ccc(Cl)cc2Cl)N2CCCC2)cc1 (stereo not given)	inconclusive [inhibitor, single point]
O=C(CSc1nc2c(c(=O)n1-c1ccc(F)cc1)SCC2)NCC1CCCO1 (stereo not given)	inactive
CCc1nnc(NC(=O)CSc2nnc(-c3ccccc3O)n2-c2ccc(C)cc2)s1	inconclusive [inhibitor, partial curve]
O=C(Oc1c(CN2CCOCC2)cc(Cl)c2cccnc12)c1cccs1	inconclusive [inhibitor, single point]
CCNc1nc(NC(C)(C)C)nc(N2CCCCC2)n1	inconclusive [inhibitor, single point]
CCOc1c(OC(C)=O)ccc(/C=C/c2ccc3cccc(OC(C)=O)c3n2)c1[N+](=O)[O-]	inconclusive [inhibitor, single point]
Cc1c(N=Cc2ccc(-c3ccc(Cl)cc3)o2)c(=O)n(-c2ccccc2)n1C	inconclusive [inhibitor, single point]

Structure (SMILES)	Potency
CCNc1ccccc(C(=O)/C=C/c2ccc3c(c2)OCO3)c1=O	inactive
Cc1ccccc1NC(=S)NCc1ccc(Cl)cc1	inactive
COc1ccc(O)c(CNn2c(-c3ccc(Br)cc3)nc3ccccc3c2=O)c1	inconclusive [inhibitor, single point]
Cc1c(C(=O)OCC(=O)N2c3ccccc3CC2C)oc2ccccc12 (stereo not given)	inconclusive [inhibitor, single point]
CCOC(=O)/C(C#N)=C/Nc1ccccc1OC	inconclusive [activator, single point]
O=C1c2cccc3c([N+](=O)[O-])ccc(c23)C(=O)N1c1nccs1	active: 10 µM
O=c1c2ccccc2nc(SCc2nnc(-c3ccccc3Br)o2)n1Cc1ccco1	inconclusive [inhibitor, partial curve]
CCOC(=O)C1CCCN(c2c(C(=O)c3ccccc3)cnc3ccccc23)C1 (stereo not given)	inconclusive [inhibitor, single point]
C=CCN1CCN(C(CC(C)C)c2nnnn2CCOC)CC1 (stereo not given)	inactive
C=CCNC(=O)NS(=O)(=O)c1ccc(C)cc1	inconclusive [inhibitor, single point]
CCC(=O)N/C(=N/c1nc(C)cc(C)n1)Nc1ccc(OC)cc1	inactive
O=C(NC1CCCC1)C1CCCN1C(=O)Nc1ccccc1 (stereo not given)	inconclusive [activator, single point]
COc1ccc(C2=NN(C(=O)CSc3ncccn3)C(c3ccc(OC)cc3)C2)cc1 (stereo not given)	inconclusive [inhibitor, partial curve]
CNc1cc(C(F)(F)F)nc(-c2ccccn2)n1	inactive
Cc1cc(NC(=O)c2sccc2C)n(-c2nc3ccccc3[nH]2)n1	inconclusive [inhibitor, single point]
O=C(NNC(=S)Nc1ccc(Cl)cc1Cl)c1ccncc1	inactive
Cc1ccc(C(=O)c2ccccc2C(=O)OCC(=O)Nc2ccc(SC(F)F)cc2)cc1	inactive
Cc1nc(N2CCOCC2)nc(N2CCC(C)CC2)c1[N+](=O)[O-]	inconclusive [inhibitor, single point]
O=C(Nc1cc(S(=O)(=O)N2CCOCC2)ccc1N1CCCC1)c1ccc2c(c1)S(=O)(=O)c1ccccc1C2=O	inactive
Fc1ccc(-c2cc(-c3ccccc3)nc(-n3cccn3)n2)cc1	inconclusive [inhibitor, single point]
N=c1c2c(-c3ccccc3)c(-c3ccccc3)oc2ncn1CCN1CCOCC1	inconclusive [inhibitor, partial curve, poor fit]
CCOc1cc2[nH]c(=S)n(CCCCC(=O)NCc3ccco3)c(=O)c2cc1OCC	inconclusive [activator, single point]
CCOc1ccc(NC(=S)NC(=O)/C=C/c2ccc(OC)c(OC)c2)c([N+](=O)[O-])c1	inactive
COc1ccc(CNC(=O)COC(=O)c2cc(-c3ccc(Cl)s3)nc3ccccc23)cc1	active: 10 µM
OC(COc1ccc2c(c1)CCC2)CN1CCN(c2cccc(Cl)c2)CC1 (stereo not given)	inconclusive [inhibitor, single point]

Structure (SMILES)	Potency
C/C(=N\NC(=S)NC1CCCCC1)c1c(F)cccc1F	active: 1 µM
CN1CCN(C(=O)C2=C[C@H](c3csc4ccccc34)C[C@H](OCCCCO)O2)CC1	inactive
COCC(C)NC(=O)NC(=O)c1ccc(Cl)cc1 (stereo not given)	inactive
COc1cc(C2NC(=S)NC(O)(C(F)(F)F)C2C(=O)c2cccs2)cc(OC)c1O (stereo not given)	inactive
CCCCN(CCCNC(=O)C1CCN(S(=O)(=O)N2CCOCC2)CC1)c1ccccc1	inactive
COc1cccc(/C=N/NC(=O)c2ccc([N+](=O)[O-])cc2Cl)c1O	inactive
Cc1ccc(/C=C2\CCC3=C2OC(N)=C(C#N)C3c2ccc(C)cc2)cc1 (stereo not given)	inactive
O=C1SCCc2c1n(Cc1ccccc1)c1ccccc21	inconclusive [activator, partial curve]
CCOC(=O)CSc1nc2c(sc(=S)n2Cc2ccco2)c(=O)n1-c1ccc(F)cc1	inconclusive [inhibitor, partial curve]
Brc1cccc(OCCn2ccnc2)c1	inactive
CCn1nnc2sc3c(c2c1=O)CCC(C)C3 (stereo not given)	inactive
Cc1ccc(NC(NC(=O)c2cccs2)C(Cl)(Cl)Cl)cc1C (stereo not given)	inconclusive [inhibitor, partial curve]
CN1CCN(c2ccccc2NC(=O)c2cc3c(s2)-c2ccccc2OC3)CC1	inconclusive [inhibitor, single point]
O=C(NCc1ccccn1)c1cc2n(n1)C(C(F)(F)F)CC(c1ccco1)N2 (stereo not given)	inactive
CCOC(=O)c1cccc(Nc2nc(-c3cccnc3)nc3ccccc23)c1	inconclusive [inhibitor, single point]
COc1ccc(-c2ccc(/C=C3/C(=N)N4C(C)=CSC4=NC3=O)o2)c([N+](=O)[O-])c1	inactive
Cc1ccccc1C1C(C#N)=C2N=C(N)c3c(sc4c3CCCCC4)N2C2=C1C(=O)CCC2 (stereo not given)	inactive
COc1ccc(/C=N/Nc2ccccn2)cc1OC	inactive
OC(C#CCCN1CCCCC1)(c1ccccc1)C1CCCCC1 (stereo not given)	inconclusive [activator, single point]
O=C(C1=C[C@H](C2CCCCC2)C[C@H](OCc2ccc(CO)cc2)O1)N1CCN(Cc2ccc3c(c2)OCO3)CC1	inconclusive [activator, partial curve]
CCCCn1c(C)cc(C)c(S(=O)(=O)c2ccccc2C)c1=O	inconclusive [inhibitor, single point]
Cc1ccc(S(=O)(=O)n2nccc2-c2c(-c3ccccc3)noc2C)cc1	inconclusive [activator, partial curve]
Cc1ccc2nc(-c3ccccc3)cc(C(=O)N3CCc4ccccc4C3)c2c1	inconclusive [inhibitor, partial curve]
CC1(C(=O)CSc2nc3ccccc3[nH]2)CCC(=O)O1 (stereo not given)	inactive
COc1ccc2[nH]c(=O)c(CN(CCN3CCCC3)C(=O)Nc3ccccc3Cl)cc2c1	inconclusive [inhibitor, single point]
